No constants are given. Whether binding was seen depends on the method and setting. In cells and extracts the contact can be indirect. Some entries that bind do so weakly or less than the wild type.

By UniProt entry, the sequences of proteins in these tests, tags left out. Where a name states a change or a piece, a line headed by the entry shows the natural chain unless it says otherwise.
UniProt Q13049: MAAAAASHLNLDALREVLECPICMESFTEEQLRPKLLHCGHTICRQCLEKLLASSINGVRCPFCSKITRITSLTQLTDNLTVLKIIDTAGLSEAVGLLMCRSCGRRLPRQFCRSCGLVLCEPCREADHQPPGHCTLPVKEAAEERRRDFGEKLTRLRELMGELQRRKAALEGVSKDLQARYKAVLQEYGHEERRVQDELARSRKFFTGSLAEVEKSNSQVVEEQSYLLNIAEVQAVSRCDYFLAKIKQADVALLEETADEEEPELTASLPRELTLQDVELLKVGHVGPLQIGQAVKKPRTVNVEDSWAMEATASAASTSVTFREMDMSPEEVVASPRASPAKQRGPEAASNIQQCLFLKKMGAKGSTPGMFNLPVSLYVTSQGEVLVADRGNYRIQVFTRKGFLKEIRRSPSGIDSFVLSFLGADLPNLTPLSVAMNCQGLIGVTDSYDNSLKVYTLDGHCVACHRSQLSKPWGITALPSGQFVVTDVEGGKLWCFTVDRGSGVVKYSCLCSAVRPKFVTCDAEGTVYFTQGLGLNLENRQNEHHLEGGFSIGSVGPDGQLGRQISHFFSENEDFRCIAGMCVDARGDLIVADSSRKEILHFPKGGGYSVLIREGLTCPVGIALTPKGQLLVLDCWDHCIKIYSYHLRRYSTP
UniProt Q969Q1: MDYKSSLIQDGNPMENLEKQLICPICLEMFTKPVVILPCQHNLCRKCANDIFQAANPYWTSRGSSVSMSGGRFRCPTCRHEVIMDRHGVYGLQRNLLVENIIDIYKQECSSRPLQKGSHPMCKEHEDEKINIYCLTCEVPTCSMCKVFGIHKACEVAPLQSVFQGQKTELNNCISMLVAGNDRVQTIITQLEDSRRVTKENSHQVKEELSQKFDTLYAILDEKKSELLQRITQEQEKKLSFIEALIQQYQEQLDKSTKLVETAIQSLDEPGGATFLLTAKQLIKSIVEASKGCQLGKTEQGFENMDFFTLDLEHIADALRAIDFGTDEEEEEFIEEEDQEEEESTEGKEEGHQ
UniProt P0DMV8: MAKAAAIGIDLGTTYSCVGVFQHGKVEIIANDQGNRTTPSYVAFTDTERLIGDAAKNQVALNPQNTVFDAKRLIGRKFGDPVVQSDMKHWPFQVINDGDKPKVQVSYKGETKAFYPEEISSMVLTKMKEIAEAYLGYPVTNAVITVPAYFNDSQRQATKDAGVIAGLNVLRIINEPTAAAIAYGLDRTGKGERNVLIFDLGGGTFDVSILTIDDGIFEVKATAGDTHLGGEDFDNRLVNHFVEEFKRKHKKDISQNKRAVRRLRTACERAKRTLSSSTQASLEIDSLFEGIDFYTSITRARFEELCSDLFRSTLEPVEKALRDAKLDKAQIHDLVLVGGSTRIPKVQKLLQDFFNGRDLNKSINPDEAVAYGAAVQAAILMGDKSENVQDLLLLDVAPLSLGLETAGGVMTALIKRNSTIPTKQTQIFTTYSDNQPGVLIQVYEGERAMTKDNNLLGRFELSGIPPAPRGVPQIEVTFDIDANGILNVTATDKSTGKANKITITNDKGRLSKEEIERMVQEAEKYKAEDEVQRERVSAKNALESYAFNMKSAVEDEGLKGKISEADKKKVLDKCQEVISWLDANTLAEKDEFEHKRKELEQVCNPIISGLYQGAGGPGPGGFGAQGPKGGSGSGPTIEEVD

The values that follow come from article PMC5215751.

The target of experiment [1] is FLAG-TRIM32 (human) (UniProt Q13049). In words: co-IP; HEK293 transiently transfected (24 h); FLAG-tagged protein immunoprecipitated with anti-FLAG Sepharose, washed five times with buffer A (50 mM Tris-HCl pH 7.5, 150 mM NaCl, 10% glycerol, 0.1% Triton X-100), eluted with FLAG peptide, western blot; in Fig 5B with co-expressed PKA catalytic subunit and increasing amounts of myc-14-3-3η. For orientation: Immunoblotting shows a protein as a band on a membrane.

For experiment [2] the target is unchanged. In words: co-IP; two-step: FLAG-TRIM32 complexes from transfected HEK293 (anti-FLAG) immunoprecipitated again with anti-myc Sepharose beads; western blot for endogenous HSP70 or 14-3-3.
The target of another experiment is FLAG-TRIM63 (UniProt Q969Q1). In words: co-IP; HEK293 transiently transfected (24 h); FLAG-tagged protein immunoprecipitated with anti-FLAG Sepharose, washed five times with buffer A (50 mM Tris-HCl pH 7.5, 150 mM NaCl, 10% glycerol, 0.1% Triton X-100), eluted with FLAG peptide, western blot; in Fig 5B with co-expressed PKA catalytic subunit and increasing amounts of myc-14-3-3η.

myc-K71S (from UniProt P0DMV8 1-641): the binding result with FLAG-TRIM32 (human) [1] is on record as “binds”. In the case of myc-HSP70 (from UniProt P0DMV8 1-641), the binding entry with FLAG-TRIM32 (human) [1] and with FLAG-TRIM32 (human) [2] was “binds” each time. With “endogenous HSP70 (HSPA1A) (from UniProt P0DMV8 1-641)”, the binding entry in the experiment with FLAG-TRIM32 (human) [1] and in the experiment with FLAG-TRIM63 was “binds” in each case. Take myc-V438F (from UniProt P0DMV8 1-641): in the experiment with FLAG-TRIM32 (human) [1], the binding entry is “no binding”.
